# Laboratory results from the BET-seq Pho4 binding data (Le et al. 2018).
# The list shows a part of the results. Values were computed here from the reads of four pooled replicates and scatter widely.
# Molecular target: T1, Pho4 (S. cerevisiae) (UniProt P07270)
# T1 sequence: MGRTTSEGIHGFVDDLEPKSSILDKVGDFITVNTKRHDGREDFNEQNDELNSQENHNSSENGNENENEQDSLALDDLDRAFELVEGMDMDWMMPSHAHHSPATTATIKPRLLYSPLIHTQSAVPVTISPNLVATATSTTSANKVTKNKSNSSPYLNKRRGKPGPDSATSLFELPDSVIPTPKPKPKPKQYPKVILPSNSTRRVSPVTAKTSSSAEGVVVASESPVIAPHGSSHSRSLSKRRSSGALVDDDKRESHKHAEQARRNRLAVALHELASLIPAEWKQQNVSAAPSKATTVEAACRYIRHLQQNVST
# Test: relative binding free energy (BET-seq); higher = weaker binding
# Settings: reference: library average
row,Sequence,relative binding free energy
1,GTTGTCACGTGCCTTT,0.2 kcal/mol
2,GGGTTCACGTGCTGCG,0.31 kcal/mol
3,TGGTTCACGTGGAATG,0.2 kcal/mol
4,TTGTGCACGTGAAGGT,0.25 kcal/mol
5,ATGTTCACGTGTTCAA,0.23 kcal/mol
6,TTAGGCACGTGTTAAG,-0.09 kcal/mol
7,GTCCTCACGTGGTGGT,0.1 kcal/mol
8,TGGCTCACGTGCATGG,0.22 kcal/mol
9,ATTCACACGTGGGGTA,-0.11 kcal/mol
10,GGAGTCACGTGGGTTC,0.08 kcal/mol
11,AATTGCACGTGTAGGG,-0.07 kcal/mol
12,GGTTTCACGTGACGTG,0.25 kcal/mol
13,ATTGGCACGTGGCTTA,-0.19 kcal/mol
14,TTAGGCACGTGTTCGC,-0.14 kcal/mol
15,GTGTGCACGTGGGTCT,-0.1 kcal/mol
16,ATGGGCACGTGCTTGC,-0.19 kcal/mol
17,ATCGGCACGTGTGGCG,0.04 kcal/mol
18,TTGGGCACGTGGGGTA,-0.14 kcal/mol
19,TAGGACACGTGTCCGG,0.21 kcal/mol
20,ATTGCCACGTGTATGA,-0.02 kcal/mol
21,GTTGGCACGTGTGCCT,-0.02 kcal/mol
22,TTGGTCACGTGTATGT,0.06 kcal/mol
23,TTGTACACGTGAGATT,0.22 kcal/mol

row,Sequence,relative binding free energy
1,GTGGGCACGTGTAATG,0.09 kcal/mol
2,AAATTCACGTGCGTGT,0.14 kcal/mol
3,CGAGTCACGTGTTTGT,0.21 kcal/mol
4,GGTAGCACGTGGAAGT,0.07 kcal/mol
5,CGTGTCACGTGGTTAG,0.03 kcal/mol
6,GCGGGCACGTGAGGGT,0.23 kcal/mol
7,AATGACACGTGGGGTG,-0.13 kcal/mol
8,AAAGACACGTGCGGGG,0 kcal/mol
9,GGTGTCACGTGTTGTA,0.07 kcal/mol
10,GAATTCACGTGGGTTT,0.22 kcal/mol
11,TATTACACGTGCTGGT,0.17 kcal/mol
12,GTAATCACGTGAATGG,0.25 kcal/mol
13,CGTTTCACGTGGATAG,0.35 kcal/mol
14,TGGGTCACGTGGAATC,0.3 kcal/mol
15,TATGGCACGTGTTTGT,-0.1 kcal/mol
16,TAGTCCACGTGTGTTA,-0.11 kcal/mol
17,TGAGGCACGTGTATCT,-0.08 kcal/mol
18,TTTATCACGTGGATCT,0.12 kcal/mol
19,AGGAGCACGTGGATGG,-0.1 kcal/mol
20,TCAGGCACGTGGGAAG,-0.26 kcal/mol
21,GGTGACACGTGAGGCG,0.23 kcal/mol
22,GTAGTCACGTGATGCA,0.3 kcal/mol
23,ATGATCACGTGGGTGC,-0.04 kcal/mol

row,Sequence,relative binding free energy
1,ATTAGCACGTGCGGAG,-0.1 kcal/mol
2,AGGTTCACGTGTACTG,0.15 kcal/mol
3,TATGTCACGTGGTAAC,-0.03 kcal/mol
4,TATGGCACGTGTTCAT,-0.25 kcal/mol
5,TGCGACACGTGTGGAA,0.14 kcal/mol
6,TTCAGCACGTGATTTT,0.12 kcal/mol
7,GAATACACGTGTGATT,0.26 kcal/mol
8,GCGTGCACGTGCTAGT,0.1 kcal/mol
9,GCGTTCACGTGAGGGT,0.45 kcal/mol
10,TGGGGCACGTGGGCTA,-0.14 kcal/mol
11,TAATACACGTGTTTAG,0 kcal/mol
12,GATTGCACGTGGCGGT,-0.09 kcal/mol
13,ATTTTCACGTGGAAGT,0.26 kcal/mol
14,TGCTACACGTGGGAGG,0.04 kcal/mol
15,GTTTACACGTGTTTCT,0.25 kcal/mol
16,CGTTGCACGTGGGTAG,-0.18 kcal/mol
17,GGGGGCACGTGGACAG,-0.16 kcal/mol
18,GTATGCACGTGAATGT,0.22 kcal/mol
19,TTAGTCACGTGATAGG,0.15 kcal/mol
20,AAATGCACGTGTGCTT,0.05 kcal/mol
21,GGAAACACGTGGGGCT,-0.22 kcal/mol
22,GGGCGCACGTGTGTAA,0.11 kcal/mol
23,GTAAGCACGTGAGTGA,0.14 kcal/mol

row,Sequence,relative binding free energy
1,TGGTGCACGTGCTGCT,-0.26 kcal/mol
2,AATGGCACGTGTCGAG,-0.04 kcal/mol
3,ATAGGCACGTGAATTT,0.16 kcal/mol
4,TTTAACACGTGGCGGC,-0.01 kcal/mol
5,TGTTTCACGTGTCTGG,0.23 kcal/mol
6,TGTGCCACGTGAGGTC,0.12 kcal/mol
7,GCGTTCACGTGGCTGG,0.23 kcal/mol
8,GTAGTCACGTGGATGT,0.2 kcal/mol
9,CAGGGCACGTGGGTGA,-0.39 kcal/mol
10,TGTAGCACGTGAAGTG,0.2 kcal/mol
11,TAACGCACGTGGTGTT,-0.29 kcal/mol
12,GTTAGCACGTGAGCGG,0.25 kcal/mol
13,TCTAGCACGTGGATTG,0.06 kcal/mol
14,TGCGTCACGTGGAGGC,0.03 kcal/mol
15,ATATACACGTGGTGGT,-0.03 kcal/mol
16,ATTTTCACGTGTGACA,0.21 kcal/mol
17,ATTCGCACGTGCGTGT,-0.09 kcal/mol
18,TTTATCACGTGTTGTC,0.15 kcal/mol
19,TCAGTCACGTGTGGGA,0 kcal/mol
20,GTGCGCACGTGTGGTG,0.05 kcal/mol
21,GTGGACACGTGTCTGG,-0.07 kcal/mol
22,TGTAACACGTGAGGCA,0.4 kcal/mol
23,GGTGTCACGTGTTTTT,0.34 kcal/mol

row,Sequence,relative binding free energy
1,CTTTTCACGTGTTAAG,0.18 kcal/mol
2,ACGGTCACGTGTTTAT,0.07 kcal/mol
3,TTGTTCACGTGATGGC,0.31 kcal/mol
4,GTCATCACGTGGGCGG,0.13 kcal/mol
5,GTAGGCACGTGTGGTC,0.06 kcal/mol
6,TGGTTCACGTGTACGC,0.35 kcal/mol
7,GTTCCCACGTGGGTGG,-0.26 kcal/mol
8,GTAAGCACGTGGGTAC,-0.05 kcal/mol
9,ATTATCACGTGTAATG,0.3 kcal/mol
10,ATGTACACGTGTACGT,0.11 kcal/mol
11,GCCAGCACGTGGTGGG,-0.25 kcal/mol
12,TAGTTCACGTGATGGG,0.4 kcal/mol
13,TGCTTCACGTGATGTA,0.22 kcal/mol
14,AAATTCACGTGGTGAG,0.26 kcal/mol
15,ATCATCACGTGAGGGT,0.25 kcal/mol
16,TCATTCACGTGTGGGG,0.46 kcal/mol
17,GGATGCACGTGAGCTG,0.16 kcal/mol
18,GGTATCACGTGCGAGA,0.39 kcal/mol
19,TTAATCACGTGTTTGG,0.14 kcal/mol
20,TTTGTCACGTGGACGG,0.14 kcal/mol
21,TTCGGCACGTGGTGAA,-0.02 kcal/mol
22,CGGCTCACGTGAAGGT,0.3 kcal/mol
23,TGTCTCACGTGACGTG,0.17 kcal/mol
